Out of some 120,000 compounds screened, about 5,300 (4.4%) were called active. The shares of active, inactive and inconclusive entries below differ from those in the screen. Calls come from the whole dose curve; as a rule, active = well fitted inhibition curve with a large enough effect; inconclusive = small, poorly fitted or top-dose-only effect; inactive = no such curve, though single readings can be large or run the other way. Where the call is inconclusive, the potency comes from a doubtful curve fit.
assay: qHTS Primary assay for Inhibitors of Plasmodium falciparum Dd2 growth in vitro; note: nearly all actives have a fitted effect of over 65% in size;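 for activity, negative = inhibition: plate controls were DMSO vehicle for no effect and reference drug for full effect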; conditions: P. falciparum Dd2 growth, SYBR Green, 72 h; activity, negative = inhibition: at 28.9 µM (top of the series) unless noted; series mostly up to 28.9 µM
How it was run: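 Readout: SYBR Green fluorescence, 485 nm excitation, 535 nm emission, after ~16 h lysis at 37C. Before that, Dd2-infected red cells (2.5% hematocrit) grew 72 h with compound, 29 uM top final concentration.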
Potency is the fitted concentration of half-maximal effect; tags give direction and shape of the fitted curve.

Row | SMILES | Potency | activity, negative = inhibition | outcome
1 | COCCN1C(=O)c2ccccc2C(C(=O)NCc2cccc(F)c2)C12CCCC2 (stereo unspecified) | inconclusive: 8.91 µM [inhibitor, partial curve, poor fit] |  | 
2 | COc1ccccc1CC(=O)Nc1cccn2nc(C(C)C)nc12 | inconclusive: 1.26 µM [inhibitor, full curve, poor fit] |  | 
3 | COc1ccccc1N1CCN(c2ccc(=O)n(CC(=O)NCc3ccc(F)cc3)n2)CC1 | inconclusive: 12.6 µM [inhibitor, single point] |  | 
4 | CCOc1ccccc1NC(=O)CSc1nc2c(oc3ccccc32)c(=O)n1-c1ccc(F)cc1 | inconclusive: 10 µM [inhibitor, single point] |  | 
5 | COc1ncccc1-c1cnc2[nH]cc(CC(N)=O)c2c1 | inconclusive: 31.6 µM [inhibitor, single point] |  | 
6 | CCc1cc(=O)n(CC(=O)Nc2cccc(C#N)c2)c(-c2ccccc2)n1 | inconclusive: 11.2 µM [inhibitor, partial curve] |  | 
7 | CC(C)(C)C(=O)CSc1nc2ccsc2c(=O)n1Cc1ccccc1Cl | inconclusive: 17.8 µM [inhibitor, single point] |  | 
8 | Cc1cn2nc(C(=O)N3CCC(C(=O)NCc4cccnc4)CC3)cc2c(=O)[nH]1 | inconclusive: 0.708 µM [inhibitor, full curve] |  | 
9 | CCN(CC)C(=O)c1ccc(NC(=O)c2ccc(-c3nn(C)c(=O)c4ccccc34)cc2)cc1 | inconclusive: 7.94 µM [inhibitor, single point] |  | 
10 | COc1ccccc1[C@@H]1CN(C(=O)CN2CCOCC2)C[C@H]1C(=O)O |  | inactive: 3.52% | 
11 | OC1(CNCCc2nc(-c3cccnc3)n[nH]2)CNCCOC1 (stereo unspecified) |  | inactive: -17.9% | 
12 | COC(=O)c1cccc(NC(=S)N[C@@H]2C=C[C@@H](c3c(C)nn(-c4ccc(C(C)C)cc4)c3C)C2)c1 | inconclusive: 14.1 µM [inhibitor, single point] |  | 
13 | COCCOCc1nc(C2CCN(C(=O)Nc3ccc(C(=O)OC)cc3)CC2)no1 | inconclusive: 12.6 µM [inhibitor, single point] |  | 
14 | CC(C)CCN1CCC2(CC1)COc1ccccc1C(=O)N2 | inconclusive: 11.2 µM [inhibitor, partial curve] |  | 
15 | O=C1CC2CCN(Cc3ccc(C(F)(F)F)cc3)CC2CCN1 (stereo unspecified) |  | inactive: -18.8% | 
16 | O=C(c1n[nH]c2ccccc12)N1CCC(OCCOc2ccc(F)cc2)CC1 | inconclusive: 7.94 µM [inhibitor, partial curve] |  | 
17 | O=C(NC1CCCCC1)N[C@H]1CCN2C(=O)c3cc(-c4ccccc4)ccc3NC(=O)[C@H]12 |  | inactive: 8.34% [at 44.1 µM] | 
18 | COc1ccc(-c2nc(CSc3nnc(C)n4c3cc3oc(C)cc34)c(C)o2)cc1OC |  | inactive: 44.6% [at 5.79 µM] | 
19 | Cc1cc(C)c(S(=O)(=O)NCCn2c(C)cnc2C2CC2)c(C)c1 | active: 11.2 µM |  | 
20 | COc1cccc([C@H]2CN(C(=O)c3c(C)nn4c(C)cc(C)nc34)C[C@@H]2N)c1 |  | inactive: -13.4% | 
21 | COc1ccc(CCN2C(=O)c3[nH]nc(-c4ccccc4O)c3C2c2ccccc2)cc1 (stereo unspecified) | active: 8.91 µM |  | 

Row | SMILES | Potency | activity, negative = inhibition | outcome
22 | Cc1c(C(=O)N(C)C)sc2c1c(=O)n(-c1ccc(F)cc1)c(=O)n2Cc1ccccc1C#N |  |  | inactive
23 | O=C(Nc1ccc([C@@H](O)[C@H]2COCC(=O)N2CCCc2ccccc2)cc1)c1ccco1 | inconclusive: 10 µM [inhibitor, partial curve, poor fit] |  | 
24 | CCc1ccccc1N(C)S(=O)(=O)c1ccc2c(c1)C(C)(C)C(=O)N2C | inconclusive: 10 µM [inhibitor, single point] |  | 
25 | COc1ccc(CNC(=O)c2ccc(Cn3ccn4nc5c(c4c3=O)CCCC5)cc2)cc1 | inconclusive: 3.98 µM [inhibitor, single point] |  | 
26 | Cc1cc(C)c(Cn2c(=O)n(CCCCC(=O)NCc3ccccc3Cl)c(=O)c3ccccc32)c(C)c1 | inconclusive: 0.158 µM [inhibitor, full curve, poor fit] |  | 
27 | CC(C)C(=O)N1CCC2(CCC(=O)N(Cc3ccccc3)CC2)CC1 |  | inactive: 10.5% | 
28 | CCC(C)NC(=O)C1COC2(CCN(C(=O)CC(C)(C)C)CC2)N1C(=O)c1cccc(C)c1 (stereo unspecified) |  |  | inactive
29 | CCOC(=O)c1c(C)sc(-c2c(-c3cccc(Cl)c3)[nH]c3c2c(=O)n(C)c(=O)n3C)c1O |  | inactive: 146% | 
30 | Cc1ccc(CNC(=O)CCc2cn(Cc3ccc(C)cc3)c3ccccc23)cc1 |  | inactive: -22.1% | 
31 | O=C(CC[C@H]1NC(=O)c2ccccc2NC1=O)Nc1nnc(C2CC2)s1 | inconclusive: 20 µM [inhibitor, single point] |  | 
32 | CCOc1ccc(-c2cc3nc(C4CCN(C(=O)OC(C)(C)C)CC4)c(C(=O)Nc4c(C)cccc4C)cn3n2)cc1 | active: 2.51 µM |  | 
33 | O=C(NCc1nnc2cc(-c3nc(C4CC4)no3)ccn12)c1cccc(Cl)c1 |  |  | inactive
34 | O=C1N[C@H](CCC(=O)N2CCC(c3nc4ccccc4[nH]3)CC2)C(=O)Nc2ccccc21 |  | inactive: -28.6% | 
35 | Cc1cn2nc(C(=O)NCC(C)c3ccccc3)cc2c(N2CCCC2)n1 (stereo unspecified) | inconclusive: 4.47 µM [inhibitor, partial curve, poor fit] |  | 
36 | Fc1ccc(OCc2nc(C3CCNC3)no2)cc1 (stereo unspecified) | inconclusive: 10 µM [inhibitor, single point] |  | 
37 | O=C(Nc1cccc(C(F)(F)F)c1)c1cccc(C(=O)Nc2cccc(C(F)(F)F)c2)c1 | inconclusive: 1.58 µM [inhibitor, partial curve, poor fit] |  | 
38 | CCOC(=O)c1c(C)c(-c2ccccc2)n(CC(=O)Nc2cc(C)cc(C)c2)c1C | inconclusive: 8.91 µM [inhibitor, single point] |  | 
39 | COc1ccccc1CNC(=O)CCC1N=C2c3ccccc3N=C(SCc3ccc(Cl)cc3)N2C1=O (stereo unspecified) | inconclusive: 10 µM [inhibitor, single point] |  | 
40 | O=[S+]1([O-])NCC2(CCCN(Cc3ccc(C(F)(F)F)cc3)C2)Nc2ccccc21 (stereo unspecified) | inconclusive: 2.51 µM [inhibitor, partial curve, poor fit] |  | 
41 | O=C1NCCN2CC3(CCN(C(=O)CC4CCCCC4)CC3)CC12 (stereo unspecified) | inconclusive: 3.98 µM [inhibitor, single point] |  | 

Source: PubChem BioAssay AID1347417 (National Center for Advancing Translational Sciences (NCATS), 2020)
